From the supplement of paper PMC7826260
Some of the results follow. One pool of 16,384 single-stranded DNAs met each Rep nickase domain in vitro (3 µM enzyme, 1 h, 37 °C); shown is the middle of each 90-letter strand. Uncut reads are compared with the no-enzyme pool on a log2 scale; uncut sequences lie near 0, cut ones below; no hit call is given. Reads are scaled to the total; where an enzyme cuts many sequences, the uncut ones exceed 0.

Assays:
Assay in all cases: uncleaved DNA left, log2 of reads against the no-enzyme library (log2 ratio); higher = less cleavage (more negative = more Rep cleavage of the k-mer); sequences stand for … in CTCGTCCG…ACCGGAGA
[1] = test system: T1, Rep nickase domain of Muscovy duck circovirus
T1 sequence (residues 1-111, tag not shown): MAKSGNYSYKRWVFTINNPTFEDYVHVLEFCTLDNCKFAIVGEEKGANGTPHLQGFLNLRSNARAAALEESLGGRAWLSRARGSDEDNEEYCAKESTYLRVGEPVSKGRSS
Experimental: (§1)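 A pool of 90-nt single-stranded DNAs with seven random bases just before the constant AC of the nick site (name = the seven bases) was cut by 3 µM recombinant His6-SUMO-tagged Rep nickase domain (300 nM DNA, 50 mM HEPES pH 8.0, 50 mM NaCl, 1 mM MnCl2, 1 h, 37 °C, three replicates). Uncut DNA was amplified and sequenced.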

[2] = test system: T2, Rep nickase domain of banana bunchy top virus
T2 sequence (residues 1-94, tag not shown): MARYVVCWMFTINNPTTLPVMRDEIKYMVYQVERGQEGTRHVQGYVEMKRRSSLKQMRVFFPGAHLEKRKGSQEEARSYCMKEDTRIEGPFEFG
Experimental: as §1

[3] = test system: T3, Rep nickase domain of cabbage leaf curl virus
T3 sequence (residues 1-116, tag not shown): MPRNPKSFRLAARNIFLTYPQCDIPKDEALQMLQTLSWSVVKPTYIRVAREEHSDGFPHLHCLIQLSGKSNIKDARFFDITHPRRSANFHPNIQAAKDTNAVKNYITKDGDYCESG
Experimental: as §1

[4] = test system: T4, Rep nickase domain of chickpea chlorotic dwarf virus
T4 sequence (residues 1-124, tag not shown): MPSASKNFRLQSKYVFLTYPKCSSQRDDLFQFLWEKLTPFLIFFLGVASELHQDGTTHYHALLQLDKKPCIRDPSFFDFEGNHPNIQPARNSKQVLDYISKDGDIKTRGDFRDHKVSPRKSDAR
Experimental: as §1

[5] = test system: T5, Rep nickase domain of faba bean necrotic yellows virus
T5 sequence (residues 1-98, tag not shown): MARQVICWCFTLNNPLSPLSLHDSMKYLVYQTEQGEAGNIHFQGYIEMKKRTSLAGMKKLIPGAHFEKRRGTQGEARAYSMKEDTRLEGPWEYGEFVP
Experimental: as §1

[6] = test system: T6, Rep nickase domain of maize striate mosaic virus
T6 sequence (residues 1-117, tag not shown): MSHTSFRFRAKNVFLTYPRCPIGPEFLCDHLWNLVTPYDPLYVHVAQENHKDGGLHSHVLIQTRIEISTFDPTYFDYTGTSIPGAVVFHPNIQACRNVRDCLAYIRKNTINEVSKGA
Experimental: as §1

[7] = test system: T7, Rep nickase domain of porcine circovirus 2
T7 sequence (residues 2-116, tag not shown): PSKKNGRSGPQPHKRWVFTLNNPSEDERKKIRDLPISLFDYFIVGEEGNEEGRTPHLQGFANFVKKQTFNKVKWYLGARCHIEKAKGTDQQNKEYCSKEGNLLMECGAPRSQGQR
Experimental: as §1

[8] = test system: T8, Rep nickase domain of tomato yellow leaf curl virus
T8 sequence (residues 1-136, tag not shown): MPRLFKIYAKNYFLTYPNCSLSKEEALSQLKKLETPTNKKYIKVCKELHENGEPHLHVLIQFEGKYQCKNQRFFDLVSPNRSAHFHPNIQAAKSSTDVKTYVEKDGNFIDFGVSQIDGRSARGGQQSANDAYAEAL
Experimental: as §1

[9] = test system: T9, Rep nickase domain of wheat dwarf virus
T9 sequence (residues 1-137, tag not shown): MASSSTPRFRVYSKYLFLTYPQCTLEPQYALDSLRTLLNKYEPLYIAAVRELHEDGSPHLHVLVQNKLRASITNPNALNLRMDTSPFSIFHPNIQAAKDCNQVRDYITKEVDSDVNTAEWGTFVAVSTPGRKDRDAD
Experimental: as §1

Sequence	uncleaved DNA left (log2) [1]	uncleaved DNA left (log2) [2]	uncleaved DNA left (log2) [3]	uncleaved DNA left (log2) [4]	uncleaved DNA left (log2) [5]	uncleaved DNA left (log2) [6]	uncleaved DNA left (log2) [7]	uncleaved DNA left (log2) [8]	uncleaved DNA left (log2) [9]
GTTGTTA	-0.251	-0.204	0.197	0.684	-0.179	1.53	-0.143	-0.1	-0.0572
GCGCAAT	2.07e-05	-0.0506	0.0264	0.446	-0.244	0.496	-0.136	-0.108	-0.0511
AAAGATG	0.0664	0.136	0.436	1.54	0.152	1.54	0.25	-0.145	0.0958
TGGGTGT	0.144	0.00853	0.56	1.08	0.0166	1.56	0.103	-0.0382	0.00574
GAGAATC	0.0568	0.0214	0.368	0.925	-0.013	1.29	0.0191	0.0794	0.213
GATACGG	0.114	0.118	0.57	1.61	-0.0271	2.05	0.191	-0.00493	0.0983
TAAAAGT	0.0156	-0.138	-3.39	-3.24	-0.0104	-1.98	-0.789	-0.0112	-3.39
TTACCCC	-0.389	-0.0969	-0.0532	-2.15	0.0177	-0.324	-1.98	-0.149	-0.0672
CCGACAG	0.0282	0.0386	-0.151	0.284	0.0465	0.18	0.0983	-0.0525	-0.0557
GTCCCTC	-0.0173	0.0463	0.309	0.805	0.0449	1.56	0.0341	0.0328	0.127
ACGTGAT	0.0313	0.173	0.165	0.456	0.205	0.666	-2.75	-0.0183	-0.0571
ATGACTC	-0.0406	-0.0222	0.0545	0.526	-0.0538	0.522	0.0893	-0.0838	0.055
GTAATCT	-0.098	0.0797	0.252	0.65	-0.0258	1.69	0.0843	0.011	0.0322
GCTAATA	0.0941	0.0825	0.0476	-0.0794	-0.0315	0.168	-0.00162	0.0771	0.152
CAGCCGC	-0.0709	-0.142	-0.617	-0.767	-0.119	-0.753	0.00333	-0.0904	-0.178
TCAGGGT	0.02	0.124	0.3	1.55	0.0562	1.87	0.0508	-0.0253	-0.00986

Sequence	uncleaved DNA left (log2) [1]	uncleaved DNA left (log2) [2]	uncleaved DNA left (log2) [3]	uncleaved DNA left (log2) [4]	uncleaved DNA left (log2) [5]	uncleaved DNA left (log2) [6]	uncleaved DNA left (log2) [7]	uncleaved DNA left (log2) [8]	uncleaved DNA left (log2) [9]
GATGAGA	0.174	0.108	0.163	0.363	0.171	-0.0862	0.163	0.0916	0.112
AGATGAG	0.0589	0.0092	-0.761	-0.14	0.0621	-1.08	0.13	0.0936	-0.0655
CATACTC	0.0801	0.0241	-0.0886	-1.37	-0.0736	-0.797	0.0901	-0.0296	-0.0143
ACCCACC	-0.0631	0.0175	-0.0616	-0.462	0.054	-0.467	-0.119	-0.159	0.0815
TCCTGTA	-0.166	-0.0407	-0.0873	-0.835	-0.0607	-0.454	-0.781	0.0234	-0.064
CCCTGGA	-0.0583	-0.0561	-0.0597	-0.302	0.0747	-0.673	-0.131	-0.0351	0.00614
ACATTCA	0.103	0.0347	-0.219	-1.33	0.128	-0.707	0.0954	0.0172	0.0354
ATCGCTA	0.0266	-0.0493	-0.305	-0.924	0.0622	-0.783	-0.132	-0.0214	0.084
GGGCAGC	0.0203	0.0576	0.802	1.88	-0.00489	2.21	0.196	0.0147	0.111
GGTTGCA	0.00267	0.00952	-0.0266	0.194	0.0342	-0.181	0.151	0.0643	-0.0177
CGCATTT	0.112	0.0857	-0.155	-1.6	0.108	-0.562	-0.0843	0.147	0.106
AGCTTGC	0.0346	-0.0671	-0.644	-0.276	-0.0758	-1.08	0.0861	0.00328	-0.0674
AACATCC	-0.0226	-0.122	-0.073	-0.407	0.015	-0.556	0.0256	-0.0659	-0.0298
TTATAAT	-3.65	-0.113	-3.03	-3.05	-0.102	-1.74	-3.76	0.0219	-2.45
TCGCCGA	-0.0241	-0.0334	-0.488	-0.494	0.0524	-0.915	0.0208	-0.0678	-0.152
GCAAGCC	-0.00466	-0.0419	-0.155	-0.0312	-0.0665	-0.267	0.0789	-0.119	-0.0812
